Assay results: PubChem BioAssay AID588342 (National Center for Advancing Translational Sciences (NCATS), 2011)
Screen size: about 360,000 compounds; about 25,000 (6.9%) were called active. This list was built around the results that the source calls inconclusive (neither active nor inactive); the mix of calls is not that of the screen. The call rests on the fitted dose curve; in most records, active means well fitted inhibition curve with a large enough effect; inconclusive means small, poorly fitted or top-dose-only effect; inactive means flat fitted curve, though single readings scatter. Where the call is inconclusive, the potency comes from a doubtful curve fit.

What follows are compounds tested against Luciferin 4-monooxygenase (Photinus pyralis) (UniProt P08659) (assay: qHTS profiling assay for firefly luciferase inhibitor/activator using purifed enzyme and Km concentrations of substrates (counterscreen for miR-21 project)). Conditions: purified FLuc, luminescence inhibition; series mostly up to 57.5 µM.
Method in brief: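 Biochemical qHTS of compounds, final roughly 60 µM downward over six points, against 10 nM purified firefly luciferase using Km concentrations of substrates (10 uM D-luciferin, 10 uM ATP) in Tris acetate pH 7.5 buffer; luminescence output.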
Further: nearly all actives have a fitted effect of over 55% in size.
Potency means the concentration at half of the fitted maximal effect; tags describe the fitted curve by direction and shape.

Sequence of UniProt P08659 (P08659 whole entry, looked up): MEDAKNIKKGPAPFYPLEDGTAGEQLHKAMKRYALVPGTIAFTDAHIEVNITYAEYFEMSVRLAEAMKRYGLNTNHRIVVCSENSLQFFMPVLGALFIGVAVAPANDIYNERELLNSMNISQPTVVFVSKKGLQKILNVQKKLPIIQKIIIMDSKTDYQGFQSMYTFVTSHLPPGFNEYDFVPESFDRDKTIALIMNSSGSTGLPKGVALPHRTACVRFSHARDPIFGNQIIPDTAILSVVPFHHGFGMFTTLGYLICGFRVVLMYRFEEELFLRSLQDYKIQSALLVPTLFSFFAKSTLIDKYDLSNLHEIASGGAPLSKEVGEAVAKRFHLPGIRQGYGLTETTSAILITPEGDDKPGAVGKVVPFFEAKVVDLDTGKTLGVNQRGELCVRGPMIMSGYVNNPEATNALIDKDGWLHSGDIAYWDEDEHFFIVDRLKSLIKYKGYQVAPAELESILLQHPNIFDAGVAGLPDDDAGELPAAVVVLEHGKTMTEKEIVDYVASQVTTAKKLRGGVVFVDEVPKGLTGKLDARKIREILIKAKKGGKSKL

Compound | Potency
O=C(Oc1cccc(NC2=NS(=O)(=O)c3ccccc32)c1)c1ccncc1 | active: 26.9 µM
COc1ccc(/C=C(\C#N)C(=O)c2cccn2C)cc1 | active: 1.51 µM
O=C(O)c1cc([N+](=O)[O-])c(N2CCCC2)c([N+](=O)[O-])c1 | inactive
CC1CCN(c2ccc(C=O)o2)CC1 | inconclusive: 21.3 µM [inhibitor, single point]
O=C(CCN1C(=O)C2C3CCC(C3)C2C1=O)OCC(=O)c1ccccc1 (stereo unspecified) | active: 13.5 µM
Cc1ccc(NC(=O)C(=O)Nc2ccccn2)cc1 | active: 0.536 µM
CC(C)(C)c1ccc(C(CC(=O)O)NC(=O)CSc2ccccc2)cc1 (stereo unspecified) | inconclusive: 21.3 µM [inhibitor, partial curve]
COc1ccc(-n2cc(C(=O)NCCc3cc(OC)ccc3OC)c3ccccc3c2=O)cc1 | inconclusive: 8.49 µM [inhibitor, partial curve]
CC(C)CC(=O)Nc1nnc(S(=O)(=O)N(C)Cc2ccc(Cl)cc2)s1 | inactive
Cc1cc(N2CCOCC2)n2cc(-c3ccc(F)cc3)nc2n1 | inconclusive: 33.8 µM [inhibitor, single point]
Cc1nn(CC(=O)NC2(C#N)CCCCC2)c(C)c1[N+](=O)[O-] | inactive
Cc1ccc(-c2ccc(=O)n(Cc3c(F)cccc3Cl)n2)cc1 | inactive
O=C(Cn1nc(C(=O)O)c2ccccc2c1=O)Nc1cc(Cl)cc(Cl)c1 | inactive
COc1ccc(N(CC(=O)N2CCN(c3ccc(Cl)cc3)CC2)S(=O)(=O)c2c(C)n[nH]c2C)cc1 | inactive
COc1cccc(CNC(=O)Cn2nc(-c3ccc(Cl)cc3)ccc2=O)c1 | inactive
CSc1nc2nc(C)c(C/C=C/c3ccccc3)c(=O)n2[nH]1 | inconclusive: 37.9 µM [inhibitor, single point]
COC(=O)C(C)N1C(=O)S/C(=C\c2ccc(-c3ccc(C(=O)O)cc3C)o2)C1=O (stereo unspecified) | active: 16.9 µM
COc1ccc(NC(=O)c2cn(-c3ccccc3)nc2-c2cc3ccccc3o2)cc1 | active: 8.49 µM
O=C(Nc1cccc2nsnc12)c1ccc(F)cc1 | inconclusive: 37.9 µM [inhibitor, partial curve, poor fit]
COc1ccc2c(c1)c(=O)c(S(=O)(=O)c1ccccc1)cn2CC(=O)Nc1ccc(C)c(Cl)c1 | inactive
COc1ccccc1-c1cc(C(=O)Nc2c(F)cc(F)cc2Br)no1 | inconclusive: 37.9 µM [inhibitor, single point]
Cc1ccc(S(=O)(=O)N2CCCN(C(=O)OC(C)(C)C)CC2)cc1 | inactive
Cc1cc(Cl)ccc1OCCCC(=O)Nc1cccnc1 | inconclusive: 21.3 µM [inhibitor, partial curve, poor fit]
CC1(C(=O)NCc2ccc(F)cc2)Oc2ccccc2NC1=O (stereo unspecified) | inactive

Compound | Potency
CCCCSc1nnc2n(-c3ccc(OC)cc3)c(=O)c3c4c(sc3n12)COC(C(C)C)C4 (stereo unspecified) | inactive
CC(C)(C)C(=O)Nc1ccc(C(=O)NCc2cccnc2)cc1 | inconclusive: 26.9 µM [inhibitor, single point]
Fc1ccccc1/C=N/N1CCN(Cc2ccccc2Cl)CC1 | inconclusive: 37.9 µM [inhibitor, partial curve, poor fit]
CN(C)c1ccc(/C=C/C(=O)c2c(O)c3ccccc3oc2=O)cc1 | active: 21.3 µM
CCCc1nn2c(=O)cc(COC(=O)c3ccccc3NC(=O)COc3ccccc3)nc2s1 | inconclusive: 23.9 µM [inhibitor, partial curve]
CCc1ccc(NC(=O)Cn2c(=O)n(CCC(C)C)c(=O)c3cccnc32)cc1 | inactive
CCOC(=O)N1CCc2c(sc3c2C(=O)NC(c2cc(OC)c(OC)c(OC)c2)N3)C1 (stereo unspecified) | inconclusive: 21.3 µM [inhibitor, partial curve, poor fit]
COc1ccccc1NC(=O)c1c(NCc2ccc(C)o2)sc2c1CCCCC2 | inconclusive: 12 µM [inhibitor, partial curve]
Cc1ccc(-c2nnc(SCC(=O)Nc3ccccc3F)o2)cc1 | inconclusive: 21.3 µM [inhibitor, single point]
COc1cc(OC)cc(C(=O)NCC(=O)OCC(=O)c2cc(C)n(Cc3ccco3)c2C)c1 | active: 26.9 µM
CCc1ccccc1NS(=O)(=O)c1ccc2c(c1)CC(=O)N2 | inactive
CN1CCC(=NNC(=O)c2cn(-c3ccccc3)nc2-c2ccccc2)CC1 | inconclusive: 19 µM [inhibitor, partial curve]
CC1CCCCN1C(=O)c1cc(-c2ccc(Br)cc2)on1 (stereo unspecified) | inconclusive: 2.69 µM [inhibitor, full curve]
COc1ccccc1OCC(=O)NNc1c2ccccc2nc2ccccc12 | inconclusive: 37.9 µM [inhibitor, single point]
CSc1ncc(C(=O)Nc2ccc(C(C)=O)cc2)c(C)n1 | inconclusive: 16.9 µM [inhibitor, partial curve]
CCCCNC(=S)Nc1ccccc1Cc1ccccc1 | inactive
COc1ccc(NC(C)C(=O)Nc2ccc(C(C)(C)C)cc2)cc1Cl (stereo unspecified) | inconclusive: 26.9 µM [inhibitor, single point]
CSc1ccc(C(=O)C2CCCN(C(=O)c3cccc(N4CCOCC4)c3)C2)cc1 (stereo unspecified) | inconclusive: 37.9 µM [inhibitor, partial curve, poor fit]
CCn1c(SCC(=O)Nc2ccc(C(C)=O)cc2)nc2nc3c(cc2c1=O)CCCC3 | inconclusive: 21.3 µM [inhibitor, partial curve, poor fit]
CC(C)(C)C1CCc2oc3ccc(NS(=O)(=O)c4ccc(C(=O)O)cc4)cc3c2C1 (stereo unspecified) | inconclusive: 15.1 µM [inhibitor, partial curve]
Cc1ccccc1NC(=O)CCCSc1nc2ccccc2s1 | inconclusive: 23.9 µM [inhibitor, single point]
CC(=O)N1CCc2c(sc(NC(=O)c3cccc(N4C(=O)CCC4=O)c3)c2C(N)=O)C1 | inconclusive: 16.9 µM [inhibitor, partial curve]
CCOC(=O)Cc1nnc(NC(=O)c2ccccc2OC)s1 | active: 16.9 µM
CN1CCc2c(sc3c2C(=O)NC(c2ccc(C(C)(C)C)cc2)N3)C1 (stereo unspecified) | inconclusive: 16.9 µM [inhibitor, partial curve]

Compound | Potency
Cc1cccc(-c2noc(-c3ccc(N4CCOCC4)c([N+](=O)[O-])c3)n2)c1 | inconclusive: 9.53 µM [inhibitor, partial curve]
CCOc1ccc(NC(=O)CN(C)C(=O)CC2CCCCC2)cc1OCC | inactive
COc1ccc(NCc2cccn2-c2nnc(N3CCCCC3)s2)cc1OC | inconclusive: 23.9 µM [inhibitor, partial curve]
Cc1cc(C)n(/N=C/c2ccc(O)cc2)c(=O)c1C#N | inactive
Cc1ccc2nc(COc3ccccc3NC(=O)c3ccc(F)cc3)cc(=O)n2c1 | inactive
CNC(=S)N/N=C/c1ccc(-c2cccc(C(=O)O)c2)o1 | active: 6.75 µM
CCn1c(SCc2nc(-c3ccc(OC)c(OC)c3)no2)nnc1-c1cccs1 | inconclusive: 26.9 µM [inhibitor, single point]
CCOc1ccc(NC(=O)c2c(NC(=O)Cc3ccccc3)sc3c2CCCCC3)cc1 | inconclusive: 13.5 µM [inhibitor, partial curve, poor fit]
CC(=O)c1sc(NS(=O)(=O)c2ccc(C)cc2)nc1C | inconclusive: 30.1 µM [inhibitor, partial curve, poor fit]
Cc1ccc(NC(=O)c2cc(-n3cnnc3)ccc2Cl)cc1 | inconclusive: 8.49 µM [inhibitor, partial curve, poor fit]
O=C(N/N=C/c1ccc(O)cc1)c1nc(-c2ccccc2)n(-c2ccccc2)n1 | inconclusive: 23.9 µM [inhibitor, single point]
CCSc1nnc(-c2cc(Br)ccc2N=Cc2c(C)[nH]n(-c3ccccc3)c2=O)c(=O)[nH]1 | inconclusive: 12 µM [inhibitor, partial curve]
CC(C)(O)C#Cc1ccc(C(=O)N2CCN(c3ccc(Cl)cc3)CC2)cc1 | inconclusive: 10.7 µM [inhibitor, partial curve, poor fit]
Cc1[nH]n(-c2cccc([N+](=O)[O-])c2)c(=O)c1-c1ccccc1 | inconclusive: 23.9 µM [inhibitor, single point]
Cc1ccc([N+](=O)[O-])cc1S(=O)(=O)Nc1ccc(-c2ccc(N3CCCC3)nn2)cc1 | inconclusive: 33.8 µM [inhibitor, single point]
O=C(O)c1ccccc1C(=O)c1ccc(Br)s1 | inconclusive: 30.1 µM [inhibitor, single point]
COc1ccc(CNC(=O)CN2C(=O)CSc3ccc(S(=O)(=O)N4CCC(C)CC4)cc32)cc1 | inactive
O=C(COC(=O)c1ccco1)NCc1ccc2c(c1)OCO2 | inconclusive: 37.9 µM [inhibitor, partial curve, poor fit]
Nc1nnc(SCc2cccc(C(F)(F)F)c2)s1 | inconclusive: 26.9 µM [inhibitor, partial curve, poor fit]
CCOCCCNC(=O)Cn1nc(Cc2ccncc2)c2ccccc2c1=O | inactive
Cc1cc(NC(=O)c2noc3c2CCCCC3)nn1Cc1ccc(Cl)cc1 | active: 13.5 µM
COc1ccc(/C=C2\Oc3cc(OCC(=O)N4CCC[C@H]4CO)ccc3C2=O)c(OC)c1 | active: 13.5 µM
CCCCCN(C(=O)CCC(=O)OCC(=O)c1ccc(C(C)CC)cc1)c1c(N)n(CCCC)c(=O)[nH]c1=O (stereo unspecified) | inconclusive: 1.2 µM [inhibitor, full curve]
